# In PubChem BioAssay AID924 (National Center for Advancing Translational Sciences (NCATS), 2007):
# Hit rate of the full screen: of about 130,000 compounds, about 1,200 (0.92%) were called active. This list was built around the results that the source calls inconclusive (neither active nor inactive); the mix of calls is not that of the screen. The call rests on the fitted dose curve; in most records, active means well fitted cell-killing curve with a large enough effect; inconclusive means small, poorly fitted or top-dose-only effect; inactive means no such curve, though single readings can be large or run the other way. Potencies of inconclusive entries are doubtful fits and often do not repeat.
# Experiment: qHTS Screen for Compounds that Selectively Target Cancer Cells with p53 Mutations: Cytotoxicity of p53ts Cells at the Permissive Temperature; further: nearly all actives have a fitted effect of over 55% in size;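 on activity change, negative = cytotoxicity: 0% = DMSO and -100% = full killing by reference compound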
# Conditions: H1299-p53A138V at 32C, ATP luminescence viability, 24 h; activity change, negative = cytotoxicity: at 46.1 µM (top of the series)
# Text: NIH Chemical Genomics Center [NCGC] NIH Molecular Libraries Screening Centers Network [MLSCN] MLSCN Grant: 1 X01 MH079844-01 Assay Submitter (PI): Dr. SUN, YI, University of Michigan NCGC Assay Overview: Synthetic Lethal Screen for Compounds to Kill Cancer Cells with p53 Mutation. Tumor suppressor gene p53 serves as a major cellular barrier against tumorigenesis. […] The goal of this screening is to identify small molecule probes that selectively kill cancer cells with mutations in p53. This screening was carried out using two lines of H1299 lung cancer cells. The H1299-p53 A138V line express a temperature sensitive p53 mutant (p53ts) in which the mutant p53 protein (A138V) is in the mutant confirmation when grown at 39C (the nonpermissive temperature) and in the wild type conformation when grown at 32C (the permissive temperature). A H1299-neo line (p53 null) grown at both 39C and 32C were used as counter-screens to filter out false positive associated with temperature shifting. The small molecular compounds that selectively target mutant p53-containing cancer cells were selected as candidate probes for further study. A cytotoxicity assay based on the measurement of ATP contents in cells was used in this screen. Concentration-responses of all the compounds in the library collection were determined in qHTS using the cell lines and temperature conditions as above.
# NCGC Assay Protocol Summary: Both the H1299-p53A138V and H1299-neo cell lines were provided by Dr.Yi Sun, a PI at the University Michigan. The cells were maintained and cultured at 37C. The resuspended frozen cells were used to plate the cells in the 1536-well assay plates at a density of 600 cells per well in 5 ul medium. The assay plates with the cells were incubated at 37C for 16 to 30 hours before the experiments. The library compounds in DMSO solution were added to the cells in assay plates and incubated 24 hours at 39C (for mutant p53 conformation) or 32C (for normal p53 conformation as control). An ATP_lite assay kit (PerkinElmer) was used to determine the cell viability. Tomaxifen (100uM) was used as the positive control for cell killing. Data were normalized to the controls for basal activity (DMSO only) and 100% killing (100uM tamoxifen). AC50 values were determined from concentration-response data modeled with the standard Hill equation. P53 assay protocol: 1. Reagent; 5 uL H1299-p53A138V or H1299-neo cell cells/well 2. Time; overnight; 37C incubation 3. Compounds; 23 nL; 5.9 nM to 46 uM 4. Controls; 23 nL; Tamoxifen 100 uM 5. Time; 24 hr; 37C incubation 6. Reagent; 3 uL; ATP_Lite reagent 7. Time; 20 min; Room Temperature 8. Detection; Luminescence; Viewlux plate reader Keywords: p53, synthetic lethal, cancer, cell viability, cytotoxicity, H1299 cell line, luminescence, MLSMR, MLSCN, NIH Roadmap, qHTS, NCGC
# Potency means the concentration at half of the fitted maximal effect; tags describe the fitted curve by direction and shape.
Structure (SMILES),"activity change, negative = cytotoxicity",Potency
COc1cccc(C2C(C)CCC3C(=O)N(C)C(C(C)C)C(=O)N32)c1 (stereo unspecified),inactive: 0.625% [at 9.22 µM],–
Cc1cccc(NC(=O)CSc2nnc([C@@H]3CCCN3C(=O)OC(C)(C)C)o2)c1C,–,"inconclusive: 31.6 µM [cytotoxic, single point]"
CC1(C)CC(N=C=O)CC(C)(CN=C=O)C1 (stereo unspecified),inactive: -13.2% [at 1.84 µM],–
CCCNC(=O)c1noc2c1CCc1ccccc1-2,–,"inconclusive: 20 µM [cytotoxic, partial curve]"
Cc1ccc2oc(-c3ccc(Cl)cc3)c(O)c(=O)c2c1,inactive: -18.1%,–
Cc1cc(C)n(-c2ccc(C(=O)Nc3ccc(S(=O)(=O)NCc4ccco4)cc3)cc2)n1,–,"inconclusive: 25.1 µM [cytotoxic, single point]"
Cc1cc(O)c(C(c2ccccc2)N2CCN(c3ccccc3)CC2)c(=O)n1Cc1ccco1 (stereo unspecified),inactive: 4.04%,–
CC1CCN(c2nc(-c3cccnc3)nc3scc(-c4ccccc4)c23)CC1,–,"inconclusive: 0.0224 µM [cytotoxic, full curve, poor fit]"
COc1cccc(-c2cc(C(=O)N3CCCCC3C)no2)c1 (stereo unspecified),–,"inconclusive: 12.6 µM [cytotoxic, single point]"
COc1cccc(N2CCN(C(=O)CCCn3c(=O)[nH]c4ccc(Br)cc4c3=O)CC2)c1,–,active: 12.6 µM
O=C(Nc1cccnc1)c1ccc(Oc2ccccc2)cc1,–,"inconclusive: 15.8 µM [cytotoxic, partial curve]"
CCC(=O)N1CCc2cc(S(=O)(=O)NC(CC(C)C)C(=O)NCCc3cccc(C)c3)ccc21 (stereo unspecified),–,"inconclusive: 14.1 µM [cytotoxic, partial curve, poor fit]"
Cc1nn2c(=O)cc(COC(=O)c3cccc(NC(=O)COc4ccccc4Cl)c3)nc2s1,–,active: 10 µM
CN(C)c1ccc(-c2nccc(NCc3ccccc3)n2)cc1,–,"inconclusive: 10 µM [cytotoxic, partial curve]"
COc1cccc2c1C(=N)c1c(O)c3c(c(O)c1C2=O)C[C@](O)(C(C)=O)C[C@@H]3O[C@H]1C[C@H](N)[C@@H](O)[C@H](C)O1,–,"inconclusive: 2 µM [cytotoxic, partial curve]"
Cc1ccc(-n2c(C)cc(C(=O)CSc3nncs3)c2C)cc1,–,active: 12.6 µM
CC(C)n1c(-c2ccc(N(C)C)cc2)nc2ccccc21,–,"inconclusive: 12.6 µM [cytotoxic, single point]"
CC1CN(C(=O)N2CCC(C(=O)N3CCN(c4ccccc4)CC3)CC2)c2cc(Cl)ccc2O1 (stereo unspecified),inactive: 10.4%,–

Structure (SMILES),"activity change, negative = cytotoxicity",Potency
O=c1oc2ccccc2c(O)c1/C=N/c1ncccn1,inactive: -10.7%,–
O=C(Nc1ccc2c(c1)OCO2)c1ccc(Br)s1,–,active: 12.6 µM
COc1cccc(CNC(=O)C(C)n2ncn3cccc3c2=O)c1OC (stereo unspecified),–,"inconclusive: 12.6 µM [cytotoxic, partial curve]"
COc1ccc(C(=O)Nc2ccc3c(c2)OCCO3)cc1,–,active: 6.31 µM
Cc1ccc(NC2=C(CC(=O)O)C(c3ccc(F)cc3)N(c3ccc(C)cc3)C2=O)cc1 (stereo unspecified),inactive: -9.52%,–
O=c1c2c3nc4ccccc4nc3n(/N=C/c3ccco3)c2ncn1CCC1=CCCCC1,–,"inconclusive: 20 µM [cytotoxic, single point]"
CCC(C)Cn1c(/C=C/c2ccccc2)nc2ccccc21 (stereo unspecified),–,"inconclusive: 20 µM [cytotoxic, single point]"
CCN1CCN(c2nc3ccccc3nc2C(C#N)C(=O)OCc2ccccc2)CC1 (stereo unspecified),inactive: 0.755%,–
CCn1c(C(=O)NCc2ccc(OC(C)C)cc2)cc2oc3ccccc3c21,–,"inconclusive: 5.01 µM [cytotoxic, full curve]"
Fc1ccccc1CSc1nc2ncccc2[nH]1,–,"inconclusive: 15.8 µM [cytotoxic, partial curve]"
CCCCCCCCOc1ccc(C(=O)O)cc1,–,"inconclusive: 0.002 µM [cytotoxic, full curve, poor fit]"
CCN1CCCC1CNC(=O)C1CCN(Cc2nc(-c3cccc(Br)c3)oc2C)CC1 (stereo unspecified),–,"inconclusive: 12.6 µM [cytotoxic, partial curve]"
COc1ccccc1CNc1cc(-c2ccccc2OC)ncn1,–,active: 12.6 µM
CN(C)c1ccc(-c2nc(NCCN3CCOCC3)c3ccccc3n2)cc1,–,active: 12.6 µM
Cc1ccc(-n2ncc3c(=O)n(CC(=O)N4CCCCCC4)cnc32)cc1,–,"inconclusive: 31.6 µM [cytotoxic, single point]"
CC(C)=CCc1c2c(c3occ(-c4ccc(O)cc4)c(=O)c3c1O)C=CC(C)(C)O2,–,"inconclusive: 31.6 µM [cytotoxic, single point]"
O=C(COc1ccc(Br)cc1Cl)Nc1ncn[nH]1,–,active: 2.51 µM
c1ccc2c(c1)CCN(c1nc3cc4c(cc3s1)OCO4)C2,–,active: 12.6 µM
